Laboratory results: the RNAGym collection of RNA variant scans (doi:10.1093/nar/gkz1192)
The source gives no read counts; variants with many changes may rest on few reads.

B1: CPEB3 Ribozyme (parent)
chain: UAACAGGGGGCCACAGCAGAAGCGUUCACGUCGCAGCCCCUGUCAGAUUCUGGUGAAUCUGCGAAUUCUGCUGUAUAUCUC

Variants of: B1
Assay: self-cleavage, relative activity (ratio to wild type); higher = more cleavage; in vitro, sequencing
How it was run: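 Relative activity compares each variant's cleaved/total read fraction with that of the unmutated ribozyme. To get these fractions, barcoded CPEB3 ribozyme libraries from rounds of error-prone PCR were transcribed with T7 RNA polymerase for 5 hours at 37°C and then given 15 min of DNase I treatment before EDTA was added. The RNAs were reverse transcribed with template switching and sequenced on Illumina, and DNA sequencing linked barcodes to variants. A minimum of 5 reads applied, and three batches were averaged.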

| Variant | self-cleavage |
| --- | --- |
| UAACAGGGGGCCACAGCGGAAGCGUUCACGUCGCAGCCCCUGUCGGAUUCUGGUGAAUCUGCGUAUUCUGCUGUAUACCUC [A18G A45G A64U U78C] | 0.16 |
| UAACAGGGGGCCACAGCGGAAGCGUUCACGUCGCGGCCCCCGUCAGAUUCUGGUGAAUCUGCGGAUUCUGCUGUAUAUCUC [A18G A35G U41C A64G] | 0.88 |
| UAACAGGGGGCCACAGCGGAAGCGUUCACGUCGCGGCCCCUGUCUGAUUCUGGUGAAUCUGCGAAUUCUGCUGUAUACCAC [A18G A35G A45U U78C U80A] | 0.66 |
| UAACAGGGGGCCACAGCGGAAGCGUUCACGUCGCUGCCCCUGUCGGAUUCCGGUGAAUCCGCGAAUUCUGCGGUAUAUCCC [A18G A35U A45G U51C U60C U72G U80C] | 0.02 |
| UAACAGGGGGCCACAGCGGAAGCGUUCACGUCGCAGCCCCUGUCGGAUUCUGGUGAAUCUGCGAGUUCUGCUGUAUAUCUC [A18G A45G A65G] | 0.22 |
| UAACAGGGGGCCACAGCGGAAGCGUUCACGUCGCUGCCCCAGUCAGACUCUGGUGAAUCUGCGAAUUCUGCUGUAUAUCUC [A18G A35U U41A U48C] | 0.06 |
| UAACAGGGGGCCACAGCGGAAGCGUUCACGUCGCCGCCCCUGUCAGACUCUGGUGAAUCUGCGAAUUCUGCUGUAUAUCUC [A18G A35C U48C] | 0.31 |
| UAACAGGGGGCCACAGCGGAAGCGUUCGCGUCGCAGCCCCUGUCAGAUCCUGGUGAAUCUGCGAAUUCUGCUGUAUAUCUC [A18G A28G U49C] | 0.26 |
| UAACAGGGGGCCACAGCGGAAGCGUUCUCGUCGCAGCCCCUGUCAGGUUCUGGCGAAUCUGCGAAUUCUGCUGUAUAUCUC [A18G A28U A47G U54C] | 0.25 |
| UAACAGGGGGCCACAGCGGAAGCGUUCACGUCGCAGCCCCUGUCGGAUUCUGGUGAAUCUGCGGAUUCUGCUGCAUAUCUC [A18G A45G A64G U74C] | 0.61 |
| UAACAGGGGGCCACAGCGGAAGCGUUCACGUCGCAGCCCCUGUCUGAUUCCGGUGAAUCUGCGAAUUCUGCUGUAUAUCUC [A18G A45U U51C] | 0.16 |
| UAACAGGGGGCCACAGCGGAAGCGUUCACGUCGCGGCCCCUGUCAGAUUCCGGUGAAUCUGCGAAUUCUGCUGUAUAUCUC [A18G A35G U51C] | 1.13 |
| UAACAGGGGGCCACAGCGGAAGCGUUCACGUCGCGGCCCCUGUCAGAUUCAGGUGAAUCUGCGAAUUCUGCCGUAUAUCUC [A18G A35G U51A U72C] | 1.01 |
| UAACAGGGGGCCACAGCGGAAGCGUUCACGUCGCUGCCCUUGUCAGAUUCUGGUGAAUCUGCGAAUUCUGCUGUAUAUCUC [A18G A35U C40U] | 0.08 |
| UAACAGGGGGCCACAGCGGAAGCGUUCUCGUCGCAGCCCCUGUCAGAUUCUGGUGAAUCUGAGAAUUCUGCUGUAUAUCUC [A18G A28U C62A] | 0.19 |
| UAACAGGGGGCCACAGCGGAAGCGUUCUCGUCGCAGCCCCUGUCAGAUUCUGGUGAAUCUGUGAAUUCUGCUGUAUAUCUC [A18G A28U C62U] | 0.12 |
| UAACAGGGGGCCACAGCGGAAGCGUUCUCGUCGCAGCCCCUGUCAGAUUCUGGUGAAACUGCGUAUCCUGCUGUAUAUCUC [A18G A28U U58A A64U U67C] | 0.13 |

| Variant | self-cleavage |
| --- | --- |
| UAACAGGGGGCCACAGCGGAAGCGUUCGCGUCGCAGCCCCUGUCAGAUUCUGGUGAAUCUGCGAAUUCUGCUGUACAUCUC [A18G A28G U76C] | 0.16 |
| UAACAGGGGGCCACAGCGGAAGCGUUCACGUCGCUGCCCCUGUCAGAUUCUGGUGGAUCUGCGAAUUCUGCUGUAUAUCUC [A18G A35U A56G] | 0.13 |
| UAACAGGGGGCCACAGCGGAAGCGUUCGCGUCGCAGCCCCUGUCAGAUCCUGGUGAAUCUGCGAAUUCUGCUGUAUAUCCC [A18G A28G U49C U80C] | 0.1 |
| UAACAGGGGGCCACAGCGGAAGCGUUCACGUCGCGGCCCCUGUCAGAUUCUGGUGUAUCCGCGAAUUCUGCUGUAUAUCUC [A18G A35G A56U U60C] | 0.39 |
| UAACAGGGGGCCACAGCGGAAGCGUUCACGUCGCAGCCCCUGUCGGAUUCUGGUGAAUCUGCGAAUUCUGCUGUAUAACUC [A18G A45G U78A] | 0.79 |
| UAACAGGGGGCCACAGCGGAAGCGUUCACGUCGCUGCCCCUGUCAGAUACUGGUGAAUCUGCGGAUUCUGCUGUAUACCUC [A18G A35U U49A A64G U78C] | 0.07 |
| UAACAGGGGGCCACAGCGGAAGCGUUCACGUCGCUGCCCCUGUCAGAUUCUGGUGAAUCUGCGAAUUCUGCCGUAUAUCUC [A18G A35U U72C] | 0.11 |
| UAACAGGGGGCCACAGCGGAAGCGUUCACGUCGCCGCCCCUGUCAGACUCUGGUGAAUCUGCGAAUUCUGCAGUUUAUCUC [A18G A35C U48C U72A A75U] | 0.13 |
| UAACAGGGGGCCACAGCGGAAGCGUUCACGUCGCAGCCCCUGUCGGAUUCAGGUGAAUCUGCGGAUUCUGCUGUAUAUCUC [A18G A45G U51A A64G] | 0.37 |
| UAACAGGGGGCCACAGCGGAAGCGUUCGCGUCGCAGCCCCUGUCAGAUACUGGUGAAUCUGCGAAUUCCGCUGUAUAUCUC [A18G A28G U49A U69C] | 0.54 |
| UAACAGGGGGCCACAGCGGAAGCGUUCACGUCGCAGCCCCUGUCGGAUUCUGGUGGACCUGCGAAUUCUGCUGUAUAUCUC [A18G A45G A56G U58C] | 0.21 |
| UAACAGGGGGCCACAGCGGAAGCGUUCGCGUCGCAGCCCCUGUCAGAUUCUGGUGAAUCUGCGAAUUCUGCUGUAUAUCCU [A18G A28G U80C C81U] | 0.42 |
| UAACAGGGGGCCACAGCGGAAGCGUUCACGUCGCGGCCCCUGUCGGAUCCUGGUGAAUCUGCGAAUUCUGCUGUACUUCUC [A18G A35G A45G U49C U76C A77U] | 0.11 |
| UAACAGGGGGCCACAGCGGAAGCGUUCACGUCGCGGCCCCUGUCAGAUUCUGGUGAAUCUGCGGAUUCUGCUGUAUACCUC [A18G A35G A64G U78C] | 1.12 |
| UAACAGGGGGCCACAGCGGAAGCGUUCUCGUCGCGGCCCCUGUCAGAUUCUGGUGAAUCUGCGAAUUCUGCUGAAUAUCUC [A18G A28U A35G U74A] | 1.1 |
| UAACAGGGGGCCACAGCGGAAGCGUUCACGUCGCGGCCCCUGUCAGAUUCUGGUGAAACUGCGAAUUCUGCUGUAUAUCUC [A18G A35G U58A] | 0.29 |
| UAACAGGGGGCCACAGCGGAAGCGUUCACGUCGCGGCCCCUGUCAGAUUCUGGUGAACCUGCGAAUUCUGCUGUAUAUCUC [A18G A35G U58C] | 0.71 |
